Here are results for 1 molecule from PMC13233820, “Recruitment of Mre11 to recombination sites during meiosis” (Nature Communications, 2026).

Holding throughout (test): co-IP; meiotic SK1 cell extracts 4 h after transfer to SPM; anti-myc antibody and Dynabeads Protein G precipitate Mre11-myc; IP buffer 25 mM Tris-HCl pH 7.5, 150 mM NaCl, 1% Triton X-100, 5 mM EDTA, 0.1% sodium deoxycholate, benzonase; Mer2-iV5 detected by blot
In assay [1] the target is T1, myc-tagged Mre11 (MRE11-myc8) (S. cerevisiae (SK1)) (UniProt P32829).
T1 sequence: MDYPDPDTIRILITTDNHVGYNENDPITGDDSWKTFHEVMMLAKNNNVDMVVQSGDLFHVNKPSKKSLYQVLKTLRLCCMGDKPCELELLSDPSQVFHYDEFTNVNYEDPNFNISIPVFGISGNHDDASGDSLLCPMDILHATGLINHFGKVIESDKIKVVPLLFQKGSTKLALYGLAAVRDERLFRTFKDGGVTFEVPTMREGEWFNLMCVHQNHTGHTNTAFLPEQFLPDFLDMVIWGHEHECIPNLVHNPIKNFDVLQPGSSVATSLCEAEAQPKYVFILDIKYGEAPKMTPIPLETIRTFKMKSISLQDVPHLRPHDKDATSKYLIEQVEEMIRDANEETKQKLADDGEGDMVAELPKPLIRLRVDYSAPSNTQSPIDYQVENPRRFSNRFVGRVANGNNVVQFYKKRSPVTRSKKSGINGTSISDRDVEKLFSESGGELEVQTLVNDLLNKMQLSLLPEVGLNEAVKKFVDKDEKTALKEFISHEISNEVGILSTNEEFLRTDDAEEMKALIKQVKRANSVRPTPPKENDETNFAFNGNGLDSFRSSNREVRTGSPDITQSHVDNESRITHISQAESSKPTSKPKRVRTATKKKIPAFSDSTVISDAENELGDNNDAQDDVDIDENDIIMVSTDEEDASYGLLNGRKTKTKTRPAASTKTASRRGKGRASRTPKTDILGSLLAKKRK

Assay [2] addresses T2, myc-tagged Mre11 SIM3 mutant (mre11-SIM3) (S. cerevisiae (SK1)) (UniProt P32829).
T2 sequence: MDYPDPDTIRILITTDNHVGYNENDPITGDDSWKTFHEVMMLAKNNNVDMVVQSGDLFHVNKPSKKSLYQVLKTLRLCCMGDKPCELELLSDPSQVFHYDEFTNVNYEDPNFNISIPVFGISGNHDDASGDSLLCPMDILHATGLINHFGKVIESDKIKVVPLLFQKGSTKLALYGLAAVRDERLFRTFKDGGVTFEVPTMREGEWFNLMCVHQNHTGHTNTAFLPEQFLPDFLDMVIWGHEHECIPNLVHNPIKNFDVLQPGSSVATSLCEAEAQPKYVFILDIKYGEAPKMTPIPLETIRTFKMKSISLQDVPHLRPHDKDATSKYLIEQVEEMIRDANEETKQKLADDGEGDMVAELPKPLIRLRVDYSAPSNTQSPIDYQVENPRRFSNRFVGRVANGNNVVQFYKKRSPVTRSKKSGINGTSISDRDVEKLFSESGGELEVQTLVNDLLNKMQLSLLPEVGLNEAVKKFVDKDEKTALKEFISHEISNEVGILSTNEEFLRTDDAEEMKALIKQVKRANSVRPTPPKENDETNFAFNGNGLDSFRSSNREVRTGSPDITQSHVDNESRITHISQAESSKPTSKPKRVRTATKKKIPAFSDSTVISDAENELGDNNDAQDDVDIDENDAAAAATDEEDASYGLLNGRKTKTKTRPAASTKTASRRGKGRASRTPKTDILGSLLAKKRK

Assay [3] addresses T3, myc-tagged Mre11 SIM3 mutant without the C-terminal 15 residues (mre11-SIM3+ΔC15) (S. cerevisiae (SK1)) (UniProt P32829).
T3 sequence: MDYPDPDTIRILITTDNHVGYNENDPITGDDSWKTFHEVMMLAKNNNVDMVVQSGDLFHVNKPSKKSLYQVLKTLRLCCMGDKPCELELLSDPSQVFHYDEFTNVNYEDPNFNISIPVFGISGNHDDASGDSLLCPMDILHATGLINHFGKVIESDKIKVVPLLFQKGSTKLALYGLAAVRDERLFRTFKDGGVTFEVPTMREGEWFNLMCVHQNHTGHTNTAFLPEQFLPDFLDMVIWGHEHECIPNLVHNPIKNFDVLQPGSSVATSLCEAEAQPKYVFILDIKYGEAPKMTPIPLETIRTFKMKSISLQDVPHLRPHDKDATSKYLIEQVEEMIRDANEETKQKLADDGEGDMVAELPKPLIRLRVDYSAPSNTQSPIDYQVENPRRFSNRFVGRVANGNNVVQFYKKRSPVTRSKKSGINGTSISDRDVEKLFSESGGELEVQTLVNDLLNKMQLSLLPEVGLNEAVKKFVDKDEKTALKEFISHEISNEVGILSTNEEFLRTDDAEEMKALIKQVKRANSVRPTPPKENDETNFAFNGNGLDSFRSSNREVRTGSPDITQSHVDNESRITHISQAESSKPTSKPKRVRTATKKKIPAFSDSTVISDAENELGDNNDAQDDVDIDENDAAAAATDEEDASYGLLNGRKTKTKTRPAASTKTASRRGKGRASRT

Results are given in words; binding and its absence hold for the method and conditions named. Binding seen in cells or lysates may run through a third protein. Some entries that bind do so weakly or less than the wild type. Tags and fused reporters may be left off the sequences shown.

B1: V5-tagged Mer2 (Mer2-iV5) (protein, UniProt P21651 1-314)
chain: MVARGRTDEISTDVSEANSEHSLMITETSSPFRSIFSHSGKVANAGALEESDKQILEWAGKLELESMELRENSDKLIKVLNENSKTLCKSLNKFNQLLEQDAATNGNVKTLIKDLASQIENQLDKVSTAMLSKGDEKKTKSDSSYRQVLVEEISRYNSKITRHVTNKQHETEKSMRCTQEMLFNVGSQLEDVHKVLLSLSKDMHSLQTRQTALEMAFREKADHAYDRPDVSLNGTTLLHDMDEAHDKQRKKSVPPPRMMVTRSMKRRRSSSPTLSTSQNHNSEDNDDASHRLKRAARTIIPWEELRPDTLESEL
With B1, the binding result in assay [1] was “binds”; in assay [2] it was “binds”; in assay [3] it was “no binding”.
